{"source": "the supplement of paper PMC8728848", "binders": {"B1": {"name": "PX9961T-pdi-555-33-555 (Parabacteroides distasonis) (protein)", "chain": "FDEETAFQSPTLVYVNTVASLYNNMFKIMGNDRHVYDLNTFSSDEAMLPCRIGDWEDGGLWQNIFLHRWGTMNDLTKNSWDFLYEQIGKCNQSVDKLQAFAEEQPDVEYFKVYLEEVRAVRAFFYYELLDLFARVPLVTSSTTPMSEVKQSERSVVFNFVRSELEEALPYLSDNRSNQKGEYYGRITKPVAYMILAKLALNAEVYADDNWTDGNRPAGKNIKFTVDGKEMNAWEATIAYVDKLEALGYKLQGNFSENFAVANETSVENIFTVPMDPVAYPDAKDYNLVRTRHYDHATAYGQSGWNGSCATVKAMNVFKFGTADEDPRCKLTYFTGEVTGPDGKTIYTEWDGQKVPLKYEPNAPKVYMDASDGLLVKTAGARMAKYEFDQNAQDGGNLHGNDCVIFRFADALLMKAEAKIRLGQNGDDEVNQVRNRVGAKPLQNVTLDTLLDERMLELAWEGVRRQDLIRFGKFTEATVDRYVGVKHFASSLDYQEDKTGYTTVFSIYADILSLNPNLTQNPGY"}}, "assay_in_all_cases": "glycan array binding signal (z-score within array); higher = stronger binding", "conditions_in_all_cases": "glycan notation: IUPAC condensed, linker removed", "key": {"[1]": {"target": "GlcNAc(b1-3)Gal(b1-4)GlcNAc(b1-3)Gal(b1-4)GlcNAc(b1-3)GalNAc", "procedure,_shortened": "(§1)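 Columns mapping to the same glycan were averaged after glycan names were converted to IUPAC-condensed notation. The data come from 3228 arrays in the Consortium for Functional Glycomics database, limited to those with an available protein sequence. Binding is reported as a within-array Z-score averaged across arrays of one protein sequence and across linkers.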"}, "[2]": {"target": "GlcNAc(b1-3)Gal(b1-4)GlcNAc(b1-3)GalNAc", "procedure,_shortened": "as §1"}, "[3]": {"target": "GlcNAc(b1-3)Gal(b1-4)GlcNAc(b1-3)[GlcNAc(b1-3)Gal(b1-4)GlcNAc(b1-3)]GalNAc", "procedure,_shortened": "as §1"}, "[4]": {"target": "GlcNAc(b1-3)Gal(b1-4)GlcNAc(b1-6)[Gal(b1-3)]GalNAc", "procedure,_shortened": "as §1"}, "[5]": {"target": "GlcNAc(b1-3)Gal(b1-4)GlcNAc(b1-6)[GlcNAc(b1-3)Gal(b1-3)]GalNAc", "procedure,_shortened": "as §1"}, "[6]": {"target": "GlcNAc(b1-3)Gal(b1-4)GlcNAc(b1-6)[GlcNAc(b1-3)]Gal(b1-4)GlcNAc", "procedure,_shortened": "as §1"}, "[7]": {"target": "GlcNAc(b1-3)GalNAc", "procedure,_shortened": "as §1"}, "[8]": {"target": "GlcNAc(b1-3)Man", "procedure,_shortened": "as §1"}, "[9]": {"target": "GlcNAc(b1-3)[GlcNAc(b1-4)][GlcNAc(b1-6)]GlcNAc", "procedure,_shortened": "as §1"}, "[10]": {"target": "GlcNAc(b1-3)[GlcNAc(b1-6)]Gal(b1-4)GlcNAc", "procedure,_shortened": "as §1"}, "[11]": {"target": "GlcNAc(b1-3)[GlcNAc(b1-6)]GalNAc", "procedure,_shortened": "as §1"}, "[12]": {"target": "GlcNAc(b1-4)Gal(b1-4)GlcNAc", "procedure,_shortened": "as §1"}, "[13]": {"target": "GlcNAc(b1-4)GlcNAc", "procedure,_shortened": "as §1"}, "[14]": {"target": "GlcNAc(b1-4)GlcNAc(b1-4)GlcNAc", "procedure,_shortened": "as §1"}, "[15]": {"target": "GlcNAc(b1-4)GlcNAc(b1-4)GlcNAc(b1-4)GlcNAc(b1-4)GlcNAc", "procedure,_shortened": "as §1"}, "[16]": {"target": "GlcNAc(b1-4)GlcNAc(b1-4)GlcNAc(b1-4)GlcNAc(b1-4)GlcNAc(b1-4)GlcNAc", "procedure,_shortened": "as §1"}, "[17]": {"target": "GlcNAc(b1-4)[GlcNAc(b1-6)]GalNAc", "procedure,_shortened": "as §1"}, "[18]": {"target": "GlcNAc(b1-6)Gal(b1-4)GlcNAc", "procedure,_shortened": "as §1"}, "[19]": {"target": "GlcNAc(b1-6)GalNAc", "procedure,_shortened": "as §1"}, "[20]": {"target": "GlcNAc6S(b1-3)Gal(b1-4)GlcNAc", "procedure,_shortened": "as §1"}, "[21]": {"target": "Kdn(a2-3)Gal(b1-3)GalNAc", "procedure,_shortened": "as §1"}, "[22]": {"target": "Kdn(a2-3)Gal(b1-3)GlcNAc", "procedure,_shortened": "as §1"}, "[23]": {"target": "Kdn(a2-3)Gal(b1-4)Glc", "procedure,_shortened": "as §1"}, "[24]": {"target": "Kdn(a2-3)Gal(b1-4)GlcNAc", "procedure,_shortened": "as §1"}, "[25]": {"target": "Kdn(a2-3)Gal(b1-4)[Fuc(a1-3)]GlcNAc", "procedure,_shortened": "as §1"}, "[26]": {"target": "Kdn(a2-6)Gal(b1-4)GlcNAc", "procedure,_shortened": "as §1"}, "[27]": {"target": "Man(a1-2)Man(a1-2)Man(a1-3)Man", "procedure,_shortened": "as §1"}, "[28]": {"target": "Man(a1-2)Man(a1-2)Man(a1-6)[Man(a1-3)]Man", "procedure,_shortened": "as §1"}, "[29]": {"target": "Man(a1-2)Man(a1-3)Man", "procedure,_shortened": "as §1"}, "[30]": {"target": "Man(a1-2)Man(a1-3)[Man(a1-2)Man(a1-6)]Man", "procedure,_shortened": "as §1"}, "[31]": {"target": "Man(a1-2)Man(a1-3)[Man(a1-2)Man(a1-6)]Man(a1-6)[Man(a1-2)Man(a1-2)Man(a1-3)]Man", "procedure,_shortened": "as §1"}, "[32]": {"target": "Man(a1-2)Man(a1-3)[Man(a1-2)Man(a1-6)]Man(a1-6)[Man(a1-2)Man(a1-2)Man(a1-3)]Man(b1-4)GlcNAc(b1-4)GlcNAc", "procedure,_shortened": "as §1"}, "[33]": {"target": "Man(a1-2)Man(a1-3)[Man(a1-6)]Man(a1-6)[Man(a1-2)Man(a1-3)]Man(b1-4)GlcNAc(b1-4)GlcNAc", "procedure,_shortened": "as §1"}, "[34]": {"target": "Man(a1-2)Man(a1-6)[Man(a1-3)]Man(a1-6)[Man(a1-2)Man(a1-2)Man(a1-3)]Man", "procedure,_shortened": "as §1"}, "[35]": {"target": "Man(a1-2)Man(a1-6)[Man(a1-3)]Man(a1-6)[Man(a1-2)Man(a1-2)Man(a1-3)]Man(b1-4)GlcNAc(b1-4)GlcNAc", "procedure,_shortened": "as §1"}, "[36]": {"target": "Man(a1-3)[Man(a1-6)]Man", "procedure,_shortened": "as §1"}, "[37]": {"target": "Man(a1-3)[Man(a1-6)]Man(a1-6)[Man(a1-2)Man(a1-3)]Man(b1-4)GlcNAc(b1-4)GlcNAc", "procedure,_shortened": "as §1"}, "[38]": {"target": "Man(a1-3)[Man(a1-6)]Man(a1-6)[Man(a1-3)]Man", "procedure,_shortened": "as §1"}, "[39]": {"target": "Man(a1-3)[Man(a1-6)]Man(a1-6)[Man(a1-3)]Man(b1-4)GlcNAc(b1-4)GlcNAc", "procedure,_shortened": "as §1"}, "[40]": {"target": "Man(a1-3)[Man(a1-6)]Man(b1-4)GlcNAc(b1-4)GlcNAc", "procedure,_shortened": "as §1"}, "[41]": {"target": "Man(a1-3)[Man(a1-6)]Man(b1-4)GlcNAc(b1-4)[Fuc(a1-6)]GlcNAc", "procedure,_shortened": "as §1"}, "[42]": {"target": "Man(a1-6)Man", "procedure,_shortened": "as §1"}, "[43]": {"target": "Man(b1-4)GlcNAc", "procedure,_shortened": "as §1"}, "[44]": {"target": "MurNAc(b1-4)GlcNAc", "procedure,_shortened": "as §1"}, "[45]": {"target": "Neu5Ac(a2-3)Gal", "procedure,_shortened": "as §1"}}, "note": "This is one part of the list."}
{"binder": "B1", "values": [{"measurement": "glycan array binding signal (z-score)", "setting": "[1]", "value": -0.348}, {"measurement": "glycan array binding signal (z-score)", "setting": "[2]", "value": -0.162}, {"measurement": "glycan array binding signal (z-score)", "setting": "[3]", "value": -0.346}, {"measurement": "glycan array binding signal (z-score)", "setting": "[4]", "value": 0.367}, {"measurement": "glycan array binding signal (z-score)", "setting": "[5]", "value": 0.58}, {"measurement": "glycan array binding signal (z-score)", "setting": "[6]", "value": -0.115}, {"measurement": "glycan array binding signal (z-score)", "setting": "[7]", "value": -0.292}, {"measurement": "glycan array binding signal (z-score)", "setting": "[8]", "value": 0.342}, {"measurement": "glycan array binding signal (z-score)", "setting": "[9]", "value": 0.158}, {"measurement": "glycan array binding signal (z-score)", "setting": "[10]", "value": -0.306}, {"measurement": "glycan array binding signal (z-score)", "setting": "[11]", "value": -0.4}, {"measurement": "glycan array binding signal (z-score)", "setting": "[12]", "value": -0.3}, {"measurement": "glycan array binding signal (z-score)", "setting": "[13]", "value": -0.548}, {"measurement": "glycan array binding signal (z-score)", "setting": "[14]", "value": -0.187}, {"measurement": "glycan array binding signal (z-score)", "setting": "[15]", "value": 0.179}, {"measurement": "glycan array binding signal (z-score)", "setting": "[16]", "value": -0.199}, {"measurement": "glycan array binding signal (z-score)", "setting": "[17]", "value": -0.531}, {"measurement": "glycan array binding signal (z-score)", "setting": "[18]", "value": -0.304}, {"measurement": "glycan array binding signal (z-score)", "setting": "[19]", "value": -0.366}, {"measurement": "glycan array binding signal (z-score)", "setting": "[20]", "value": 0.429}, {"measurement": "glycan array binding signal (z-score)", "setting": "[21]", "value": -0.487}, {"measurement": "glycan array binding signal (z-score)", "setting": "[22]", "value": -0.676}, {"measurement": "glycan array binding signal (z-score)", "setting": "[23]", "value": -0.602}, {"measurement": "glycan array binding signal (z-score)", "setting": "[24]", "value": -0.683}, {"measurement": "glycan array binding signal (z-score)", "setting": "[25]", "value": 0.001}, {"measurement": "glycan array binding signal (z-score)", "setting": "[26]", "value": -0.626}, {"measurement": "glycan array binding signal (z-score)", "setting": "[27]", "value": -0.417}, {"measurement": "glycan array binding signal (z-score)", "setting": "[28]", "value": -0.201}, {"measurement": "glycan array binding signal (z-score)", "setting": "[29]", "value": -0.357}, {"measurement": "glycan array binding signal (z-score)", "setting": "[30]", "value": -0.232}, {"measurement": "glycan array binding signal (z-score)", "setting": "[31]", "value": 0.268}, {"measurement": "glycan array binding signal (z-score)", "setting": "[32]", "value": -0.356}, {"measurement": "glycan array binding signal (z-score)", "setting": "[33]", "value": -0.181}, {"measurement": "glycan array binding signal (z-score)", "setting": "[34]", "value": -0.681}, {"measurement": "glycan array binding signal (z-score)", "setting": "[35]", "value": 0.258}, {"measurement": "glycan array binding signal (z-score)", "setting": "[36]", "value": 1.49}, {"measurement": "glycan array binding signal (z-score)", "setting": "[37]", "value": -0.453}, {"measurement": "glycan array binding signal (z-score)", "setting": "[38]", "value": -0.49}, {"measurement": "glycan array binding signal (z-score)", "setting": "[39]", "value": -0.373}, {"measurement": "glycan array binding signal (z-score)", "setting": "[40]", "value": 0.087}, {"measurement": "glycan array binding signal (z-score)", "setting": "[41]", "value": 0.127}, {"measurement": "glycan array binding signal (z-score)", "setting": "[42]", "value": 0.167}, {"measurement": "glycan array binding signal (z-score)", "setting": "[43]", "value": -0.842}, {"measurement": "glycan array binding signal (z-score)", "setting": "[44]", "value": -0.306}, {"measurement": "glycan array binding signal (z-score)", "setting": "[45]", "value": -0.213}]}
